Reference: a compilation of properties of binary mixtures (doi:10.1007/s10953-012-9891-7)
The densities may have been worked out from excess volumes.

Test: xn = mol fraction of the nth substance listed
Settings: 101 kPa

CCCCCCCCCCCCCC[P+](CCCCCC)(CCCCCC)CCCCCC.[Br-] + CN(C)C=O
mass density [kg/m3]
Settings	x2 = 0.1305	x2 = 0.2663	x2 = 0.4341	x2 = 0.525	x2 = 0.6708	x2 = 0.7748	x2 = 0.847	x2 = 0.9068	x2 = 0.9209	x2 = 0.9626
293.15 K	961.2	961.1	960.9	960.6	960	–	957.9	955.8	955.1	952.3
298.15 K	958.1	958	–	957.3	956.5	955.4	–	951.7	950.9	947.9
303.15 K	954.9	954.7	954.3	953.9	953	951.7	950.2	947.6	946.8	943.5
308.15 K	951.8	–	951	–	949.6	–	946.4	943.6	942.7	939.1
313.15 K	948.6	–	947.7	947.2	946.1	944.5	942.6	–	–	934.6
